Measurements from PubChem BioAssay (NCI).
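All cell lines were grown in 96-well plates and treated with compound for 48 hours. At the GI50, growth is halved. TGI marks complete inhibition of growth.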

Tested on: NCI-H322M lung
Test: growth of human tumour cells (NCI), 48 h

First: COc1cc2c3c(n(CCCNC4CCC4)c(=O)c2cc1OC)-c1cc2c(cc1C3=O)OCO2
Second: CCNC(=O)N1CCc2cc(OC)c(OCCc3ccc(OC)c(N)c3)cc2C1c1ccc(C)cc1C (configuration not stated)
The GI50 of the first is 2.6-fold higher: 1.62 µM for the first, 0.626 µM for the second.

Compared with O=C(Nc1ccc(Br)cc1)Nc1nc2ccc([N+](=O)[O-])cc2s1, O=C(NNc1nc2cc(F)c(F)cc2n2cccc12)c1ccncn1 is 8-fold lower in GI50: 1.92 µM for the first, 0.239 µM for the second.

O=C1[C@@H]2Cc3c([nH]c4ccccc34)[C@H](c3c(Cl)cccc3Cl)N2C(=O)CN1C1CCN(Cc2ccccc2)CC1 and CCNCc1c(-c2cccc(OC(F)(F)F)c2)[nH]c2ccc(N3CCCC3)cc2c1=O are within 1.5-fold of each other in GI50: 4.49 µM for the first, 4.17 µM for the second.

First: COc1cc2c3c(n(CCCNC4CCC4)c(=O)c2cc1OC)-c1cc2c(cc1C3=O)OCO2
Second: CCNC(=O)N1CCc2cc(OC)c(OCCc3ccc(OC)c(N)c3)cc2C1c1ccc(C)cc1C (configuration not stated)
The TGI of the first is lower: 4.14 µM for the first, greater than 100 µM for the second.

O=C(Nc1ccc(Br)cc1)Nc1nc2ccc([N+](=O)[O-])cc2s1 and O=C(NNc1nc2cc(F)c(F)cc2n2cccc12)c1ccncn1 are within 1.5-fold of each other in TGI: 5.91 µM for the first, 6.43 µM for the second.

O=C1[C@@H]2Cc3c([nH]c4ccccc34)[C@H](c3c(Cl)cccc3Cl)N2C(=O)CN1C1CCN(Cc2ccccc2)CC1 and CCNCc1c(-c2cccc(OC(F)(F)F)c2)[nH]c2ccc(N3CCCC3)cc2c1=O cannot be ordered by TGI: greater than 14.3 µM for the first, 52.9 µM for the second.
